Results published in patent publication US20240158408A1, “Nitrogen-Containing Heterocyclic Compound, Pharmaceutical Compositions thereof and Use thereof” (280 Bio, Inc., priority 2022, published 2024).

Biological target: PI3Kα H1047R (Homo sapiens (Human), UniProt P42336, H1047R)
Settings: read-out: PI3KαH1047RIC50
[1] = ADP-Glo, ATP 25 μM, PIP2 50 μg/mL, 1 hour at room temperature

Row | Structure (SMILES) | IC50 [1] [µM] | IC50 [µM]
1 | Cc1ccccc1C1NC(=O)c2cccc3ccc(NC(=O)c4csc5ccccc45)c1c23 (stereo not shown) [YL004] | 0.25 to 10 | 
2 | O=C(Nc1cc(NC(=O)C(F)(F)F)c2c3c1C(c1cc(F)ccc1Cl)NC(=O)N3CC2)c1cc(F)cc(C(F)(F)F)c1 (stereo not shown) [YL009] | < 0.25 | 
3 | O=C(Nc1cc(N2CC(F)(F)C2)c2c3c1C(c1cc(F)ccc1Cl)NC(=O)N3CC2)c1cc(F)cc(C(F)(F)F)c1 (stereo not shown) [YL012] | < 0.25 | 
4 | Cn1nc(C(F)(F)F)cc1-c1cc(NC(=O)c2cc(F)cc(C(F)(F)F)c2)c2c3c1CCN3C(=O)NC2c1cc(F)ccc1Cl (stereo not shown) [YL014] | < 0.25 | 
5 | O=C(Nc1cc(NC2CC2)c2c3c1C(c1cc(F)ccc1Cl)NC(=O)N3CC2)c1cc(F)cc(C(F)(F)F)c1 (stereo not shown) [YL022] | < 0.25 | 
6 | O=C(Nc1cc(Nc2cnn(C3CCOCC3)c2)c2c3c1C(c1cc(F)ccc1Cl)NC(=O)N3CC2)c1cc(F)cc(C(F)(F)F)c1 (stereo not shown) [YL023] | < 0.25 | 
7 | O=C(Nc1cc(NC2COC2)c2c3c1C(c1cc(F)ccc1Cl)NC(=O)N3CC2)c1cc(F)cc(C(F)(F)F)c1 (stereo not shown) [YL027] | < 0.25 | 
8 | O=C(Nc1cc(NC2CCOCC2)c2c3c1C(c1cc(F)ccc1Cl)NC(=O)N3CC2)c1cc(F)cc(C(F)(F)F)c1 (stereo not shown) [YL028] | < 0.25 | 
9 | C[C@H](O)C(=O)Nc1cc(NC(=O)c2cc(F)cc(C(F)(F)F)c2)c2c3c1CCN3C(=O)NC2c1cc(F)ccc1Cl (stereo partly shown) [YL030] | < 0.25 | 
10 | C[C@@H](O)C(=O)Nc1cc(NC(=O)c2cc(F)cc(C(F)(F)F)c2)c2c3c1CCN3C(=O)NC2c1cc(F)ccc1Cl (stereo partly shown) [YL031] | < 0.25 | 
11 | O=C1NC(c2cc(F)ccc2Cl)c2c(-c3nc4c(F)cc(C(F)(F)F)cc4[nH]3)ccc3c2N1CC3 (stereo not shown) [YL032] | < 0.25 | 
12 | O=C1NC(c2cc(F)ccc2Cl)c2c(Nc3nccc4c(C(F)(F)F)cc(F)cc34)cc(Br)c3c2N1CC3 (stereo not shown) [YL042] | < 0.25 | 
13 | Nc1cc(-c2cc(Nc3nccc4c(C(F)(F)F)cc(F)cc34)c3c4c2CCN4C(=O)NC3c2cc(F)ccc2Cl)n[nH]1 (stereo not shown) [YL044] | < 0.25 | 
14 | O=C1NC(c2cc(F)ccc2Cl)c2c(Nc3nccc4c(C(F)(F)F)cc(F)cc34)cc(F)c3c2N1CC3 (stereo not shown) [YL045] | 0.25 to 10 | 
15 | O=C(Nc1cc(-c2c(C(F)(F)F)n[nH]c2C2CC2)c2c3c1C(c1cc(F)ccc1Cl)NC(=O)N3CC2)c1cc(F)cc(C(F)(F)F)c1 (stereo not shown) [YL048] | < 0.25 | 
16 | O=C(Nc1cc(-c2c(C(F)(F)F)n[nH]c2-c2ccccc2)c2c3c1C(c1cc(F)ccc1Cl)NC(=O)N3CC2)c1cc(F)cc(C(F)(F)F)c1 (stereo not shown) [YL049] | 0.25 to 10 | 

Row | Structure (SMILES) | IC50 [1] [µM] | IC50 [µM]
17 | O=C1NC(c2cc(F)ccc2Cl)c2c(Nc3nccc4c(C(F)(F)F)cc(F)cc34)ccc3c2N1CC3 (stereo not shown) [YL050] | < 0.25 | 
18 | O=C1NC(c2cc(F)ccc2Cl)c2c(Nc3ncnc4cc(F)cc(F)c34)ccc3c2N1CC3 (stereo not shown) [YL051] | > 10 | 
19 | O=C1NC(c2cc(F)ccc2Cl)c2c(Nc3ncnc4c(Cl)cc(F)cc34)ccc3c2N1CC3 (stereo not shown) [YL052] | 0.25 to 10 | 
20 | Nc1cc(NC(=O)c2cc(F)cc(C(F)(F)F)c2)c2c3c1CCN3C(=O)NC2c1cccc2ccccc12 (stereo not shown) [YL060] | 0.25 to 10 | 
21 | O=C(Nc1cc(-c2nn(Cc3ccccc3)cc2F)c2c3c1C(c1cc(F)ccc1Cl)NC(=O)N3CC2)c1cc(F)cc(C(F)(F)F)c1 (stereo not shown) [YL061] | 0.25 to 10 | 
22 | O=C(Nc1cc(Br)c2c3c1C(c1cccc(F)c1)NC(=O)N3CC2)c1cc(F)cc(C(F)(F)F)c1 (stereo not shown) [YL062] | 0.25 to 10 | 
23 | O=C(Nc1cc(Br)c2c3c1C(c1cc(F)ccc1Br)NC(=O)N3CC2)c1cc(F)cc(C(F)(F)F)c1 (stereo not shown) [YL063] | < 0.25 | 
24 | O=C(Nc1cc(Br)c2c3c1C(c1ccccc1)NC(=O)N3CC2)c1cc(F)cc(C(F)(F)F)c1 (stereo not shown) [YL064] | 0.25 to 10 | 
25 | O=C(Nc1cc(Br)c2c3c1C(c1ccccc1Cl)NC(=O)N3CC2)c1cc(F)cc(C(F)(F)F)c1 (stereo not shown) [YL066] | 0.25 to 10 | 
26 | Cc1n[nH]c(C(F)(F)F)c1-c1cc(NC(=O)c2cc(F)cc(C(F)(F)F)c2)c2c3c1CCN3C(=O)NC2c1cc(F)ccc1Cl (stereo not shown) [YL072] | < 0.25 | 
27 | CCn1nc2ccc(NC(=O)c3cc(F)cc(C(F)(F)F)c3)c3c2c1C(=O)NC3c1cc(F)ccc1Cl (stereo not shown) [YL115] |  | < 0.25
28 | CC(C)n1nc2ccc(NC(=O)c3cc(F)cc(C(F)(F)F)c3)c3c2c1C(=O)NC3c1cc(F)ccc1Cl (stereo not shown) [YL118] |  | < 0.25
29 | O=C(Nc1cc(F)cc(C(F)(F)F)c1)Nc1cc(Br)c2c3c1C(c1cc(F)ccc1Cl)NC(=O)N3CC2 (stereo not shown) [YL122] | < 0.25 | 
30 | Cn1nc2ccc(NC(=O)c3cc(F)cc(C(F)(F)F)c3)c3c2c1C(=O)NC3c1cc(Cl)c(F)cc1Cl (stereo not shown) [YL123] | > 10 | 
31 | O=C(Nc1cc(C(=O)O)c2c3c1C(c1cc(Cl)ncc1Cl)NC(=O)N3CC2)c1cc(F)cc(C(F)(F)F)c1 (stereo not shown) [YL127] | > 10 | 

Continued, in another order:

Row | IC50 [1] [µM] | Structure (SMILES) | IC50 [µM]
32 | < 0.25 | [N-]=[N+]=Nc1cc(NC(=O)c2cc(F)cc(C(F)(F)F)c2)c2c3c1CCN3C(=O)NC2c1cc(F)ccc1Cl (stereo not shown) [YL011] | 
33 | < 0.25 | Nc1n[nH]c2ccc(-c3cc(NC(=O)c4cc(F)cc(C(F)(F)F)c4)c4c5c3CCN5C(=O)NC4c3cc(F)ccc3Cl)cc12 (stereo not shown) [YL013] | 
34 | < 0.25 | Cn1cc(-c2cc(NC(=O)c3cc(F)cc(C(F)(F)F)c3)c3c4c2CCN4C(=O)NC3c2cc(F)ccc2Cl)cn1 (stereo not shown) [YL015] | 
35 | < 0.25 | O=C(Nc1cc(-c2cnoc2)c2c3c1C(c1cc(F)ccc1Cl)NC(=O)N3CC2)c1cc(F)cc(C(F)(F)F)c1 (stereo not shown) [YL018] | 
36 | < 0.25 | O=C(Nc1cc(B(O)O)c2c3c1C(c1cc(F)ccc1Cl)NC(=O)N3CC2)c1cc(F)cc(C(F)(F)F)c1 (stereo not shown) [YL019] | 
37 | 0.25 to 10 | Cc1cc(NC(=O)c2cc(F)cc(C(F)(F)F)c2)c2c3c1CCN3C(=O)NC2c1cc(F)ccc1Cl (stereo not shown) [YL020] | 
38 | < 0.25 | O=C(Nc1cc(F)c2c3c1C(c1cc(F)ccc1Cl)NC(=O)N3CC2)c1cc(F)cc(C(F)(F)F)c1 (stereo not shown) [YL021] | 
39 | < 0.25 | O=C(Nc1cc(-c2c[nH]c3ncc(C(F)(F)F)cc23)c2c3c1C(c1cc(F)ccc1Cl)NC(=O)N3CC2)c1cc(F)cc(C(F)(F)F)c1 (stereo not shown) [YL036] | 
40 | < 0.25 | Nc1cc(-c2cc(NC(=O)c3cc(F)cc(C(F)(F)F)c3)c3c4c2CCN4C(=O)NC3c2cc(F)ccc2Cl)[nH]n1 (stereo not shown) [YL053] | 
41 | < 0.25 | O=C(Nc1cc(-c2ccn[nH]2)c2c3c1C(c1cc(F)ccc1Cl)NC(=O)N3CC2)c1cc(F)cc(C(F)(F)F)c1 (stereo not shown) [YL054] | 
42 | 0.25 to 10 | Cc1ncc(-c2cc(NC(=O)c3cc(F)cc(C(F)(F)F)c3)c3c4c2CCN4C(=O)NC3c2cc(F)ccc2Cl)[nH]1 (stereo not shown) [YL067] | 
43 | < 0.25 | Cc1nc[nH]c1-c1cc(NC(=O)c2cc(F)cc(C(F)(F)F)c2)c2c3c1CCN3C(=O)NC2c1cc(F)ccc1Cl (stereo not shown) [YL068] | 
44 | 0.25 to 10 | C#Cc1cc(NC(=O)c2cc(F)cc(C(F)(F)F)c2)c2c3c1CCN3C(=O)NC2c1cc(F)ccc1Cl (stereo not shown) [YL069] | 
45 | 0.25 to 10 | Cc1cc(-c2cc(NC(=O)c3cc(F)cc(C(F)(F)F)c3)c3c4c2CCN4C(=O)NC3c2cc(F)ccc2Cl)n[nH]1 (stereo not shown) [YL070] | 
46 | < 0.25 | O=C(Nc1cc(-c2cn[nH]c2C(F)(F)F)c2c3c1C(c1cc(F)ccc1Cl)NC(=O)N3CC2)c1cc(F)cc(C(F)(F)F)c1 (stereo not shown) [YL071] | 
47 | > 10 | N#Cc1c[nH]nc1-c1cc(NC(=O)c2cc(F)cc(C(F)(F)F)c2)c2c3c1CCN3C(=O)NC2c1cc(F)ccc1Cl (stereo not shown) [YL125] | 
48 | < 0.25 | N#Cc1n[nH]cc1-c1cc(NC(=O)c2cc(F)cc(C(F)(F)F)c2)c2c3c1CCN3C(=O)NC2c1cc(F)ccc1Cl (stereo not shown) [YL126] | 
49 | < 0.25 | O=C(Nc1cc(-c2ccc3ncnn3c2)c2c3c1C(c1cc(F)ccc1Cl)NC(=O)N3CC2)c1cc(F)cc(C(F)(F)F)c1 (stereo not shown) [YL128] | 

Row | IC50 [1] [µM] | Structure (SMILES) | IC50 [µM]
50 | 0.25 to 10 | O=C(Nc1cc(-c2ccc3ncnn3c2F)c2c3c1C(c1cc(F)ccc1Cl)NC(=O)N3CC2)c1cc(F)cc(C(F)(F)F)c1 (stereo not shown) [YL129] | 
51 | 0.25 to 10 | N#Cc1ccc(-c2cc(NC(=O)c3cc(F)cc(C(F)(F)F)c3)c3c4c2CCN4C(=O)NC3c2cc(Cl)ccc2Cl)c(N)n1 (stereo not shown) [YL130] | 
52 | > 10 | N#Cc1ncccc1-c1cc(NC(=O)c2cc(F)cc(C(F)(F)F)c2)c2c3c1CCN3C(=O)NC2c1cc(Cl)ccc1Cl (stereo not shown) [YL131] | 
53 | < 0.25 | N#Cc1c(N)cccc1-c1cc(NC(=O)c2cc(F)cc(C(F)(F)F)c2)c2c3c1CCN3C(=O)NC2c1cc(Cl)ccc1Cl (stereo not shown) [YL132] | 
54 | < 0.25 | N#Cc1c(N)cccc1-c1cc(NC(=O)c2cc(F)cc(C(F)(F)F)c2)c2c3c1CCN3C(=O)NC2c1cc(F)ccc1Cl (stereo not shown) [YL133] | 
55 | < 0.25 | N#Cc1ccc(-c2cc(NC(=O)c3cc(F)cc(C(F)(F)F)c3)c3c4c2CCN4C(=O)NC3c2cc(F)ccc2Cl)c(N)n1 (stereo not shown) [YL134] | 
56 | < 0.25 | N#Cc1ncccc1-c1cc(NC(=O)c2cc(F)cc(C(F)(F)F)c2)c2c3c1CCN3C(=O)NC2c1cc(F)ccc1Cl (stereo not shown) [YL136] | 
57 | < 0.25 | N#Cc1nc(N)ncc1-c1cc(NC(=O)c2cc(F)cc(C(F)(F)F)c2)c2c3c1CCN3C(=O)NC2c1cc(F)ccc1Cl (stereo not shown) [YL137] | 
58 | < 0.25 | O=C(Nc1cc(-c2ccc3ncnn3c2Br)c2c3c1C(c1cc(F)ccc1Cl)NC(=O)N3CC2)c1cc(F)cc(C(F)(F)F)c1 (stereo not shown) [YL139] | 
59 | < 0.25 | C#Cc1c(-c2cc(NC(=O)c3cc(F)cc(C(F)(F)F)c3)c3c4c2CCN4C(=O)NC3c2cc(F)ccc2Cl)ccc2ncnn12 (stereo not shown) [YL140] | 
60 | < 0.25 | N#Cc1ncncc1-c1cc(NC(=O)c2cc(F)cc(C(F)(F)F)c2)c2c3c1CCN3C(=O)NC2c1cc(F)ccc1Cl (stereo not shown) [YL141] | 
61 | < 0.25 | N#Cc1c(-c2cc(NC(=O)c3cc(F)cc(C(F)(F)F)c3)c3c4c2CCN4C(=O)NC3c2cc(F)ccc2Cl)ccc2[nH]ncc12 (stereo not shown) [YL142] | 
62 | < 0.25 | N#Cc1nc(F)ncc1-c1cc(NC(=O)c2cc(F)cc(C(F)(F)F)c2)c2c3c1CCN3C(=O)NC2c1cc(F)ccc1Cl (stereo not shown) [YL143] | 
63 | < 0.25 | O=C(Nc1cc(-c2ccc3ncnn3c2C(F)(F)F)c2c3c1C(c1cc(F)ccc1Cl)NC(=O)N3CC2)c1cc(F)cc(C(F)(F)F)c1 (stereo not shown) [YL145] | 
64 | < 0.25 | COc1c(-c2cc(NC(=O)c3cc(F)cc(C(F)(F)F)c3)c3c4c2CCN4C(=O)NC3c2cc(F)ccc2Cl)ccc2ncnn12 (stereo not shown) [YL146] | 
65 | < 0.25 | O=C(Nc1cc(-c2cnc3[nH]cnc3c2Cl)c2c3c1C(c1cc(F)ccc1Cl)NC(=O)N3CC2)c1cc(F)cc(C(F)(F)F)c1 (stereo not shown) [YL147] | 
66 | < 0.25 | N#Cc1cc(N)ccc1-c1cc(NC(=O)c2cc(F)cc(C(F)(F)F)c2)c2c3c1CCN3C(=O)NC2c1cc(F)ccc1Cl (stereo not shown) [YL150] | 
67 | < 0.25 | N#Cc1cc(N)ncc1-c1cc(NC(=O)c2cc(F)cc(C(F)(F)F)c2)c2c3c1CCN3C(=O)NC2c1cc(F)ccc1Cl (stereo not shown) [YL152] | 

Read-outs that look alike come from different tables or passages of the source.
